From the supplement of paper PMC3334620
In all, about 33,000 sequences were measured (“E-score (-0.5 to 0.5)”: median about -0.053, highest 2% from about 0.37 on). The list shows a part of the results.

biological target: Hap1 (UniProt P0CE41); assay: PBM E-score (8-mer binding enrichment) (E-score (-0.5 to 0.5)); higher = stronger / more preferred TF binding; most listed sequences are background and not binding sites; conditions: protein concentration: 200 nM; construct: GST-DNA-binding domain
Outline: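 Yeast transcription factors carrying a GST tag, as full-length proteins or DNA-binding domains, were produced by PURExpress in vitro transcription/translation. About 100-200 nM protein was applied to universal all-10-mer Agilent arrays, double-stranded by primer extension on fresh or once-stripped slides. Bound protein was detected with fluorescent anti-GST, and scans were normalised with masliner. The Universal PBM Analysis Suite gave each ungapped eight-base word, pooled with its reverse complement, an E-score, a modified Wilcoxon-Mann-Whitney statistic.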

Chain of UniProt P0CE41 (P0CE41 whole entry, the tested form may be a part): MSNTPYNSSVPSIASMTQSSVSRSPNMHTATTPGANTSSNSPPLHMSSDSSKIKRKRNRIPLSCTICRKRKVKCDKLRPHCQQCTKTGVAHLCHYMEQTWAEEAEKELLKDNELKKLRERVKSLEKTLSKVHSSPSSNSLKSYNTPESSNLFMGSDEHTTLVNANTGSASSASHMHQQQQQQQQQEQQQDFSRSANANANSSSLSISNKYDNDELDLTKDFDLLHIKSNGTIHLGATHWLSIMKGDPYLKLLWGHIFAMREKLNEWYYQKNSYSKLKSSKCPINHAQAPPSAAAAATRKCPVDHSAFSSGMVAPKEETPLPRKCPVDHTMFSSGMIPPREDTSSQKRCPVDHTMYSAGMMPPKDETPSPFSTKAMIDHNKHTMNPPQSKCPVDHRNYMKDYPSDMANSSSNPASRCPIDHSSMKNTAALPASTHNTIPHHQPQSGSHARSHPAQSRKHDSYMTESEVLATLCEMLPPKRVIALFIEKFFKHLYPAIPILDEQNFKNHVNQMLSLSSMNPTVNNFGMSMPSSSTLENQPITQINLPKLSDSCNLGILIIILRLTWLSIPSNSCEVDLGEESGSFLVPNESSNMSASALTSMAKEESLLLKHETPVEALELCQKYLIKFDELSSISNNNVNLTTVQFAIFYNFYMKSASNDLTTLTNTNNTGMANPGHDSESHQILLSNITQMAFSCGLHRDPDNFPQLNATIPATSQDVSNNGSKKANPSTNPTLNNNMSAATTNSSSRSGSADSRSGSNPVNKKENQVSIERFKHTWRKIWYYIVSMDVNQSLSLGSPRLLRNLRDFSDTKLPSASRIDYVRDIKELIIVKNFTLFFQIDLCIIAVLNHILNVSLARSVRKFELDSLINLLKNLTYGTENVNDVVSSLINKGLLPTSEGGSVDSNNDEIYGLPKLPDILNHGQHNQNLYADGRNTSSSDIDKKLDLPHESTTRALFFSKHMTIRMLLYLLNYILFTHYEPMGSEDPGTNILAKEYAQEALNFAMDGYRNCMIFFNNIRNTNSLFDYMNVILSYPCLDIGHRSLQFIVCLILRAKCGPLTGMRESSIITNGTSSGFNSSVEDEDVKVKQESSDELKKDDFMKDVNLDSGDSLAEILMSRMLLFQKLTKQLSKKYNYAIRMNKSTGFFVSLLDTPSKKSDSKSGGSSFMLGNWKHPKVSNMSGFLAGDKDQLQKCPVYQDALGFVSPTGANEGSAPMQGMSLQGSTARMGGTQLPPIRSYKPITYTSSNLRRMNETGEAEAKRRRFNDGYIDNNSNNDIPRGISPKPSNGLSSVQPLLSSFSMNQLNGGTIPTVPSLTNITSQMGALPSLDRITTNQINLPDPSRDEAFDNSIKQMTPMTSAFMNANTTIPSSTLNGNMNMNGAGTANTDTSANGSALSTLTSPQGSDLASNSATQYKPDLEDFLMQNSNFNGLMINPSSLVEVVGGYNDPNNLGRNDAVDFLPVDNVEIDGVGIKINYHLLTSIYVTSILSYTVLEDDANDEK

Row | Sequence | PBM E-score
1 | CACGTATC | -0.0777
2 | CAGGGTCA | -0.178
3 | CAGAGAGA | -0.271
4 | ATAACTGG | -0.00522
5 | GAAGGAGA | -0.221
6 | AAATCCAA | -0.0526
7 | GGAGAACA | 0.0816
8 | CAAACCTG | -0.189
9 | CTAGCAAG | -0.275
10 | ATCAAAGA | -0.222
11 | GATTCGGC | 0.341
12 | GCCTATCC | -0.0494
13 | CCCTAGAG | -0.13
14 | TAACGACA | -0.0973
15 | GTAGCTCA | -0.14
16 | AGGATGGA | -0.0197
17 | AGTACCCC | 0.0758
18 | ATTGCAAT | 0.0977
19 | ATCGACAA | 0.0897
20 | GGATAACA | -0.00353
21 | ACGTTCAA | -0.152
22 | AGCATGTC | -0.0508

Row | Sequence | PBM E-score
23 | ATATTAGG | -0.0872
24 | GACTAGAA | -0.0358
25 | ATCGGCGG | 0.408
26 | CTTGGGTA | -0.108
27 | CGGACCCC | 0.233
28 | ACATCAGC | 0.0244
29 | TATAGGAA | -0.189
30 | GCCACTCA | -0.0199
31 | GACTCACC | -0.109
32 | CTTCGAAC | -0.0233
33 | GGACTGCA | -0.296
34 | GTATCAGA | -0.12
35 | CAGTTGTC | -0.0876
36 | AGCCTGCG | -0.0999
37 | GAGTGGTA | -0.111
38 | GTCCCCAC | -0.206
39 | ATGTCAAT | -0.0437
40 | AATCGAAC | -0.0758
41 | ATTTGGGA | -0.117
42 | ACGTGCCT | -0.0713
43 | GTTACAAC | 0.0652
44 | ATCTTCGG | 0.322

Row | Sequence | PBM E-score
45 | AAACTAAT | 0.117
46 | ATCCCATC | -0.227
47 | CCTGATCG | -0.074
48 | TCCTGCCA | -0.12
49 | GAGCTAAA | 0.0627
50 | ATTTGTGA | -0.191
51 | AAATTGAT | 0.06
52 | ATGGAAAA | 0.0624
53 | ACCTCCAA | -0.244
54 | ACGGGTCA | -0.107
55 | GACCAAGC | -0.0246
56 | AATAACAC | 0.135
57 | ACATCAAC | 0.0757
58 | AAACCCAG | -0.208
59 | CCACCAAG | -0.066
60 | GGACAAAC | 0.00614
61 | AACATCCA | -0.154
62 | ATCAATGC | 0.0363
63 | ATAGCCAG | -0.293
64 | GAAAAGGA | -0.0758
65 | CAACATCC | -0.0049
66 | CGACAAGC | 0.0766

Row | Sequence | PBM E-score
67 | CGCTGTGC | 0.142
68 | CCGGGAGC | 0.278
69 | CCAAAGTA | -0.0608
70 | AGGCTGAG | -0.0777
71 | CAAACCAC | -0.109
72 | ACATCAAT | -0.14
73 | GAAGTTAA | -0.126
74 | AAATACAT | -0.216
75 | ACAACTGC | -0.232
76 | AGGGACCT | -0.127
77 | ATGATCTG | -0.105
78 | TATGGCGA | -0.146
79 | CCCGATGA | 0.285
80 | ATAGAGAA | -0.183
81 | CAGTCAAA | -0.179
82 | ACAGGCAC | -0.111
83 | CGTGACTA | -0.0182
84 | CTAATCGA | -0.014
85 | AATACCGA | 0.296
86 | ACTCTGAA | -0.0321
